From PMC4336329 (PLoS ONE, 2015)
The whole screen tested about 310,000 compounds, of which about 14,000 (4.5%) showed an effect of 50% or more. The effect is printed as a negative number. The list shows a part of the results.

target: human ether-à-go-go-related gene (hERG) potassium channel (human, UniProt Q12809); experiment: primary screen, population patch clamp on CHO cells stably expressing hERG
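Further: peak tail current of the secondary pulse compared with the same well before compound.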

human ether-à-go-go-related gene (hERG) potassium channel, sequence (Q12809 whole entry, looked up): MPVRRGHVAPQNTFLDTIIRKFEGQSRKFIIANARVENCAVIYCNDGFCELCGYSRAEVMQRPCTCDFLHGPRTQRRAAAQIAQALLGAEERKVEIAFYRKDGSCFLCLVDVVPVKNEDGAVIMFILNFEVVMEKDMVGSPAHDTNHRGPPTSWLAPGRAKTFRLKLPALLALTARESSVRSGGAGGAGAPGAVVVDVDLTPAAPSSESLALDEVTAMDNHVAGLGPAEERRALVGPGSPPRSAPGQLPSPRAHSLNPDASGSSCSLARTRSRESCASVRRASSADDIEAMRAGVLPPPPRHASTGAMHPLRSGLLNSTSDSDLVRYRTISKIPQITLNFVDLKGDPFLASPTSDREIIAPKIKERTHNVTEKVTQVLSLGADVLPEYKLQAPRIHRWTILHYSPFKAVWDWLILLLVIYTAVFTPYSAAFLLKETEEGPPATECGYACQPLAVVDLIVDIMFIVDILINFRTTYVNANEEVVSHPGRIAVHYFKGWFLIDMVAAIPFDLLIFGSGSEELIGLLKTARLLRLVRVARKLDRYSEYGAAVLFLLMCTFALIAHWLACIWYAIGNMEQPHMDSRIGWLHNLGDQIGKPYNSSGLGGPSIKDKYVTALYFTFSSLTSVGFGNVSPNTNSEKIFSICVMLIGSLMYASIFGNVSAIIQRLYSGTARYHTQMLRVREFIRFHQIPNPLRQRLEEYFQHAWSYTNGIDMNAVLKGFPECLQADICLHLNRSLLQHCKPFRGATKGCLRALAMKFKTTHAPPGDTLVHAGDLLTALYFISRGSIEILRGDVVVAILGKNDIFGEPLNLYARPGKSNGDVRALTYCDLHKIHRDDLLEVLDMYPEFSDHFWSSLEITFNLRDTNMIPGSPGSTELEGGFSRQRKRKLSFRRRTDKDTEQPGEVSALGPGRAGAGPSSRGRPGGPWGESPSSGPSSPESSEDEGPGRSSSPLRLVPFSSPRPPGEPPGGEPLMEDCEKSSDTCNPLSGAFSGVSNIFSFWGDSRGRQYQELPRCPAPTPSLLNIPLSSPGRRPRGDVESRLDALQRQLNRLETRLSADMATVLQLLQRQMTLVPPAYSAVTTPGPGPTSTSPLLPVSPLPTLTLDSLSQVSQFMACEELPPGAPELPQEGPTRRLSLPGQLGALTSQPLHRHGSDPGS

Row | SMILES | hERG current change (%, negative = inhibition) at 10uM [%]
1 | CC(=O)N(c1cccc(C)c1)S(=O)(=O)c1ccc(Cl)cc1 | 9.88
2 | Cc1ccccc1OCCn1cnc2cc([N+](=O)[O-])ccc2c1=O | -7.38
3 | O=C(C[n+]1cccc(CNC(=O)c2ccc(OC(F)F)cc2)c1)Nc1cc(C(F)(F)F)ccc1Cl.[Cl-] | -18.5
4 | CCOC(=O)C(NCc1ccc2c(c1)OCO2)(NC(=O)c1ccccc1)C(F)(F)F (stereo not shown) | -0.6
5 | Cc1ccc2[nH]c(-c3ccccc3)c(CN3CCOCC3)c(=O)c2c1 | -13.9
6 | COc1ccc(N2CCN(S(=O)(=O)c3ccc(-n4cnnn4)c(C)c3)CC2)cc1 | 9.42
7 | CC(C)C(NS(=O)(=O)c1cccc2nsnc12)C(=O)NCCC1=CCCCC1 (stereo not shown) | -14.3
8 | Fc1cccc(Cl)c1CN1CCN(c2nc3ccccc3s2)CC1 | 13.5
9 | S=C(NCCCN1CCOCC1)NCCCN1CCOCC1 | 25.8
10 | CNC(=S)N(CCc1c(C)[nH]c2ccc(C)cc12)Cc1ccc(OC)c(OC)c1 | -5.57
11 | Nc1cc(Nc2ccccc2)c2nonc2c1[N+](=O)[O-] | 16.3
12 | CC1(C)Cc2nc3nc(SCC(=O)Nc4ccccc4)nc(N)c3cc2CO1 | 10.6
13 | Cc1cccc(-c2nc(CS(=O)CC(=O)N3CCCCC3)c(C)o2)c1 (stereo not shown) | 18.8
14 | CSCC[C@H](NC(=O)OC(C)(C)C)c1nnc(SCc2cccc(F)c2)o1 | -30.3
15 | O=C(O)c1cc(NS(=O)(=O)c2ccc3ccccc3c2)ccc1O | 12.2
16 | CN1CCN(c2ccc(Cl)cc2NC(=O)C2COc3ccccc3O2)CC1 (stereo not shown) | -44.2
17 | CN(CC(=O)NCCc1ccc(F)cc1)Cc1ccc(Br)cc1 | -11.1
18 | O=C1CCN(CCc2ccccc2)CCN1CCSc1ccc(Br)cc1 | -80.1
19 | Cc1ccccc1OCC(=O)Nc1sc2c(c1C#N)CCC2 | -4.25
20 | CN(C)CCOC1c2ccccc2-c2ccccc21.O=C(O)C(=O)O | 3.18

Row | SMILES | hERG current change (%, negative = inhibition) at 10uM [%]
21 | CC(C)NC(=O)NC(=O)CN1c2cccc3cccc(c23)S1(=O)=O | 8
22 | O=C(c1ccc2c(c1)OCO2)N1CCN(c2ccc(F)cc2)CC1 | -30.4
23 | COc1ccc(CNCCC(c2ccccc2)c2ccc(OC(C)C)cc2)cc1OC (stereo not shown) | -69.7
24 | O=C(CSCc1ccc(F)cc1)NCc1ccc2c(c1)OCO2 | -9.94
25 | N/C(=N\OC(=O)Oc1ccccc1)c1ccc(Cl)cc1 | 0.651
26 | Cc1cccc(N=Nc2c(O)[nH]c3ccc(Br)cc23)c1 | 13.5
27 | CC(=O)Nc1cccc(OCC(=O)Nc2sccc2C(N)=O)c1 | 1.46
28 | COC(=O)[C@@H]1C[C@@]2(O)[C@H](O)[C@H](O)[C@H](O)C[C@H]2N1CC(c1ccccc1)c1ccccc1 | 14.3
29 | COc1ccc2c(c1)C(C)CC(C)(C)N2C(=O)Nc1ccccc1 (stereo not shown) | 8.54
30 | CCN1C(=O)CCCc2ccccc21 | 17.6
31 | CCn1nc(NC(=O)c2ccco2)c2cc3ccccc3nc21 | -0.887
32 | Cc1cc(C)cc(NC(=O)CCCCCN2C(=O)[C@@H]3Cc4ccccc4CN3C2=O)c1 | -51.9
33 | CC1CCN(CCCNC(=O)c2ccc(CS(=O)(=O)Cc3ccc(Cl)cc3)o2)CC1 | -44
34 | O=C1COc2ccc(S(=O)(=O)N3CCCCC3)cc2N1 | 20
35 | CCc1cc(C(=O)COc2ccccc2F)c(O)cc1O | -1.35
36 | COCCCn1c(SCC(=O)O)nc2cc(OC)c(OC)cc2c1=N | 9.07
37 | C=C(C)c1cccc(C(C)(C)NC(=O)Nc2cc(C)ccn2)c1 | 6.07
38 | O=c1c2ccccc2ncn1-c1ccc(Cl)cc1 | 10.6
39 | NC(N)=N/N=C/c1ccc(OCc2ccccc2)c(OCc2ccccc2)c1 | -38.9
40 | CCCCCNC(=O)CCCCn1c(=O)[nH]c2cc(OCC)c(OCC)cc2c1=O | -0.175

Row | SMILES | hERG current change (%, negative = inhibition) at 10uM [%]
41 | O=C(COC(=O)c1ccccc1-c1nc2ccccc2s1)NC1CCS(=O)(=O)C1 (stereo not shown) | -1.07
42 | CC(O)C(=O)NCCOCCOCCNC(=O)C(C)O (stereo not shown) | 6.33
43 | CCOC(=O)N1CCN(C(=O)CNC(=O)c2ccc(Cl)cc2)CC1 | 3.58
44 | COC(=O)c1ccc(C2C(C(=O)Nc3ccccc3C)=C(C)Nc3ncnn32)cc1 (stereo not shown) | -1.32
45 | O=C(Cn1c(=O)oc2ccccc21)N1CCCCC1 | 0.141
46 | O=C1NCCN1CCN1C(=O)c2ccccc2NC1c1ccccc1 (stereo not shown) | -10.8
47 | Cc1ccc(OCC(=O)NC(=S)Nc2cccc(NC(=O)c3ccccc3)c2)cc1 | 0.949
48 | O=C(COc1ccc(Cl)cc1Br)NC1CC1 | -9.5
49 | CN(C)/C=C1/C(=O)Nc2ccccc21 | -8.07
50 | CCOC(=O)c1c(-c2ccccc2)oc2ccc(OCC(=O)NN)cc12 | 3.85
51 | COc1cccc(-c2nnc(SCN3C(=O)c4ccccc4C3=O)n2C)c1 | -18.5
52 | COc1cc(NS(=O)(=O)c2ccc(NC(=O)COc3ccc(C)cc3)cc2)nc(OC)n1 | 10.1
53 | c1nnc2c3c4c(sc3ncn12)CCC4 | -2.87
54 | COc1ccccc1NS(=O)(=O)c1cccc(NC(=O)C2CC2)c1 | -15.5
55 | COc1ccccc1NC(=O)Nc1ccc(F)c(F)c1 | 18.4
56 | COc1ccc(CC(=O)Nc2cc(=O)n(C)c(=O)n2C)cc1 | 11.2
57 | CCOC(=O)/C(=N\Nc1ccc(C(C)=O)cc1)c1csc(Nc2ccccc2)n1 | 5.53
58 | Cc1ccc(-c2nc(CS(=O)(=O)CC(=O)NCCCN3CCOCC3)c(C)o2)cc1 | 11.5
